Source: PubChem BioAssay AID2675 (National Center for Advancing Translational Sciences (NCATS), 2010)
Out of some 280,000 compounds screened, about 100 (0.036%) were called active. Inconclusive means that the source gave no clear call. Such entries were picked first, then a sample of the others. The call rests on the fitted dose curve; in most records, active means well fitted inhibition curve with a large enough effect in the signal ratio, with a control signal flat (not every such curve was filed as active); inconclusive means small, poorly fitted or top-dose-only effect, or effect the other way, or a change in a side signal; inactive means no such curve, though single readings can be large or run the other way; the % refers to the signal ratio. Where the call is inconclusive, the potency comes from a doubtful curve fit. “Side channel” marks fits to a control or component signal instead of the main read-out.

target: Muscleblind-like protein 1 (Homo sapiens) (UniProt Q9NR56); experiment: qHTS Assay for Inhibitors of MBNL1-poly(CUG) RNA binding; details: TR-FRET MBNL1-His/biotin-(CUG)12 binding, 665/545 ratio; activity change, negative = inhibition: at 57.5 µM (top of the series)
Procedure, shortened: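 Ratiometric TR-FRET (665 over 545 nm, excitation 340 nm) tracks disruption of MBNL1-His/biotin-(CUG)12 complex after 60 min at room temperature, with compounds at 92 nM to 58 uM final.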
On the % scale 0 is the no-effect control and ±100 the full control effect; potency means the concentration at half of the fitted maximal effect; tags describe the fitted curve by direction and shape or compound fluorescence and quenching.

Sequence of UniProt Q9NR56 (Q9NR56 whole entry, looked up): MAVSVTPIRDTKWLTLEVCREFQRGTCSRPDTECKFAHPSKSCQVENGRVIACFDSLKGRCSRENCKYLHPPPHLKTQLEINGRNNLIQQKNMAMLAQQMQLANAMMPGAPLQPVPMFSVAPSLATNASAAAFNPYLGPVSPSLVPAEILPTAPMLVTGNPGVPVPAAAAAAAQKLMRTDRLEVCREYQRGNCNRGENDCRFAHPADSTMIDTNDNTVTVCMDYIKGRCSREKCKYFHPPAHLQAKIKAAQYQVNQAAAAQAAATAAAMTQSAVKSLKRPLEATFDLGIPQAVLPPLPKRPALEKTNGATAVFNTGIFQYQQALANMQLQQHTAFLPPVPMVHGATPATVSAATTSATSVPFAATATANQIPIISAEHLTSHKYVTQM

SMILES	Potency	activity change, negative = inhibition
Cc1ccc(-c2nnc3c(C(F)(F)F)nc4ccccc4n23)cc1	inconclusive: 3.16 µM [quencher, side channel, full curve]	–
O=c1oc2ccccc2c(O)c1Cc1cc(Cl)c2cccnc2c1O	–	inactive: 15.9%
N#Cc1c(/N=C/c2cc3ccccc3s2)sc2c1CCC2	inconclusive: 3.16 µM [quencher, side channel, partial curve]	–
Cn1c(CN2CCCCC2)nc2cc([N+](=O)[O-])ccc21	inconclusive: 15.8 µM [quencher, side channel, partial curve]	–
Cc1cc(C(=O)N/N=C/c2c3ccccc3cc3ccccc23)n[nH]1	inconclusive: 17.8 µM [quencher, side channel, partial curve]	–
O=C(NNC(=S)Nc1ccc(F)cc1)c1cccc([N+](=O)[O-])c1	inconclusive: 25.1 µM [quencher, side channel, single point]	–
COC(=O)c1ccc(CSc2nccn2C)cc1	–	inactive: -9.98%
Cc1c(NC(=O)CN2C(=O)c3ccc([N+](=O)[O-])cc3C2=O)c(=O)n(-c2ccccc2)n1C	inconclusive: 8.91 µM [quencher, side channel, partial curve]	–
Cn1c(CCCOc2ccc(Cl)cc2Cl)nnc1SCC(=O)Nc1cccc(F)c1	inconclusive: 0.1 µM [fluorescent, side channel, full curve, poor fit]	–
Nc1c(Cl)cc(-c2[nH]c3cc(C(=O)NCCO)ccc3c(=O)c2O)cc1Cl	inconclusive: 17.8 µM [quencher, side channel, partial curve]	–
CC(=O)NN1C(=O)/C(=C/c2ccc(Br)o2)SC1=S	inconclusive: 14.1 µM [quencher, side channel, partial curve]	–
O=C(Nc1ccccc1C(F)(F)F)c1ncn[nH]1	–	inactive: -0.587%
Cc1ccc(O)c(NC(=O)c2cc([N+](=O)[O-])ccc2Cl)c1	inconclusive: 15.8 µM [quencher, side channel, partial curve]	–
O=C(Nc1ncc(Cc2cccc(Cl)c2)s1)c1ccc([N+](=O)[O-])cc1	inconclusive: 0.01 µM [fluorescent, side channel, full curve]	–
CN(C)c1ccc(NC(=S)c2ccccn2)cc1	inconclusive: 20 µM [quencher, side channel, single point]	–
O=C(NCCc1ccccc1)c1nc2ncccn2n1	–	inactive: 5.65%
CCC(C(=O)Nc1ccc([N+](=O)[O-])cn1)c1ccccc1 (stereo not drawn)	inconclusive: 15.8 µM [quencher, side channel, partial curve]	–
CCOC(=O)Cc1csc(NC(=O)/C=C/c2ccc(Br)o2)n1	inconclusive: 14.1 µM [quencher, side channel, partial curve]	–
Cc1ccc(NC(=S)N/N=C/c2ccc(OCCC(C)C)cc2)c(C)c1	inconclusive: 22.4 µM [quencher, single point]	–
COc1ccc(-c2ccc(N)[n+](CCCC(=O)O)n2)cc1	inconclusive: 12.6 µM [quencher, side channel, partial curve]	–

SMILES	Potency	activity change, negative = inhibition
COCC(=O)Nc1ccc([N+](=O)[O-])cc1C	inconclusive: 39.8 µM [quencher, side channel, partial curve, poor fit]	–
O=C(COC(=O)c1cc(-c2cccs2)nc2ccccc12)NCc1ccco1	inconclusive: 15.8 µM [quencher, side channel, partial curve]	–
O=C(NCCCCc1ccccc1)C1CC(c2ccc(C(F)(F)F)cc2)=NO1 (stereo not drawn)	–	inactive: 7.47%
Cc1ccccc1OCC(=O)N/N=C/c1ccncc1	inconclusive: 8.91 µM [fluorescent, side channel, full curve]	–
Cc1ccc(C(c2cc(Cl)c3cccnc3c2O)N2CCN(C)CC2)cc1 (stereo not drawn)	–	inactive: 32.3%
CC(Oc1cccc(Cl)c1)C(=O)Nc1ccc([N+](=O)[O-])cn1 (stereo not drawn)	inconclusive: 20 µM [quencher, side channel, partial curve]	–
COC(=O)/C(C#N)=C/c1ccc(OC(=O)c2ccccn2)cc1	inconclusive: 25.1 µM [quencher, side channel, partial curve]	–
CN1CCN(C(=O)/C=C/c2ccc([N+](=O)[O-])o2)CC1	inconclusive: 12.6 µM [quencher, side channel, partial curve]	–
O=C1NCCCC2c3cc(O)c4ccccc4c3OC12N1CCCCC1 (stereo not drawn)	inconclusive: 12.6 µM [quencher, side channel, partial curve]	–
O=[N+]([O-])c1ccc(CN2CCN(c3ccccc3Cl)CC2)o1	inconclusive: 12.6 µM [quencher, side channel, partial curve]	–
O=C(Nc1cccc(NC(=O)c2ccccc2Cl)c1)c1ccc([N+](=O)[O-])o1	inconclusive: 6.31 µM [quencher, side channel, partial curve]	–
CC1Cc2ccccc2N1c1ncnc(N)c1[N+](=O)[O-] (stereo not drawn)	inconclusive: 12.6 µM [quencher, side channel, partial curve]	–
Oc1ccc(NC(=S)Nc2ccc(O)cc2)cc1	inconclusive: 15.8 µM [quencher, side channel, partial curve]	–
CC1CCc2c(sc3ncnc(SCC(=O)c4ccccc4)c23)C1 (stereo not drawn)	inconclusive: 39.8 µM [quencher, side channel, single point]	–
CC1(N2CCCCC2)C(=O)c2ccccc2C1=O	inconclusive: 100 µM [inhibitor, partial curve]	–
O=S(=O)(N/N=C/c1ccc(N2CCOCC2)cc1)c1ccccc1	inconclusive: 22.4 µM [quencher, side channel, partial curve]	–
CC(C)n1c(NCc2ccc(N(C)C)cc2)nc2ccccc21	inconclusive: 79.4 µM [inhibitor, single point]	–
CCOc1cc(/C=N/NC(=O)C(C)Sc2ccccn2)ccc1O (stereo not drawn)	inconclusive: 22.4 µM [quencher, side channel, partial curve]	–
O=C(CCN1C(=O)c2ccccc2C1=O)C1=NN[C@@H]2C(=O)N(c3cccc(Cl)c3)C(=O)[C@H]12	inconclusive: 17.8 µM [quencher, side channel, single point]	–
N=c1sccn1CC(=O)Nc1cc(Cl)ccc1[N+](=O)[O-]	inconclusive: 14.1 µM [quencher, side channel, partial curve]	–

SMILES	Potency	activity change, negative = inhibition
CCc1ccc(CNC(=O)c2cc3c(C)nc4ccccc4c3o2)cc1	inconclusive: 1.58 µM [quencher, side channel, partial curve]	–
CN1CCN(Cc2c(O)ccc3occ(C(=O)c4ccccc4)c23)CC1	inconclusive: 22.4 µM [quencher, side channel, single point]	–
C=CCOCCN(C)C1=NS(=O)(=O)c2cc([N+](=O)[O-])ccc21	inconclusive: 10 µM [quencher, side channel, partial curve]	–
CCN1CCN(CC(=O)Nc2cc(C)c(C)cc2[N+](=O)[O-])CC1	inconclusive: 3.16 µM [activator, single point]	–
O=C1/C(=C/c2ccc(F)cc2)Oc2cc(OC(=O)N3CCOCC3)ccc21	–	inactive: -7.86%
CC1=NN(c2ccccc2)C(=O)C1N=Nc1ccc(N)cc1 (stereo not drawn)	inconclusive: 0.794 µM [quencher, side channel, full curve, poor fit]	–
CC1CC(=O)N(c2ccc(N(C)Cc3ccccc3)c([N+](=O)[O-])c2)C1=O (stereo not drawn)	inconclusive: 12.6 µM [quencher, side channel, partial curve]	–
O=C(OCC(=O)N1CCCC1)c1cc(Cl)ccc1[N+](=O)[O-]	inconclusive: 12.6 µM [quencher, partial curve]	–
CN(C)c1ccc(NC(=O)/C=C/c2c(Cl)cccc2Cl)cc1	inconclusive: 12.6 µM [fluorescent, side channel, partial curve, poor fit]	–
CC1=NN(C(=O)c2ccccc2Cl)C(O)(c2cccnc2)C1 (stereo not drawn)	–	inactive: -3.59%
Cc1c(CCOC(=O)c2cc([N+](=O)[O-])ccc2Cl)sc[n+]1CCCCS(=O)(=O)[O-]	inconclusive: 14.1 µM [quencher, side channel, partial curve]	–
O=C(/C=C/c1ccccc1[N+](=O)[O-])Nc1ccc(S(=O)(=O)Nc2ncccn2)cc1	inconclusive: 12.6 µM [quencher, side channel, partial curve]	–
COc1ccc(C(CNC(=O)c2ccc3c(c2)C(=O)N(CCC(C)C)C3=O)N2CCOCC2)cc1 (stereo not drawn)	inconclusive: 15.8 µM [quencher, side channel, partial curve]	–
N#C/C(=C\c1cccnc1)c1ccc(Br)cc1	inconclusive: 17.8 µM [quencher, side channel, partial curve]	–
NC(=O)c1ccccc1NC(=O)CCc1ccccc1	–	inactive: -0.303%
COc1ccc(NC(=O)C/C(C)=N/NC(=O)c2ccco2)c([N+](=O)[O-])c1	inconclusive: 28.2 µM [quencher, side channel, single point]	–
O=C1N=c2ccccc2=C1c1[nH]c(=S)[nH]c1O	inconclusive: 3.16 µM [quencher, side channel, full curve]	–
CCc1nnc(NC(=O)/C=C/c2ccco2)s1	inconclusive: 3.16 µM [quencher, side channel, partial curve, poor fit]	–
